Assay results published in the supplement of paper PMC11417369.
The other results are listed elsewhere or left out.

Each sequence was assayed on PfHDP1 homeodomain (GST-tagged) (assay: gcPBM binding intensity (ln(normalized median fluorescence intensity)); higher = stronger DNA binding).
Method in brief: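 Binding intensity is the highest Masliner-normalised natural-log median intensity over replicate spots in either probe orientation. To obtain it, GST-tagged P. falciparum DNA-binding domains made in E. coli were incubated for 1 h on an Agilent 4 × 180k array of primer-extended double-stranded 36-bp intergenic genomic probes plus negative controls. Detection used Alexa488 anti-GST antibody with scanning at 488 nm.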

Compared with “TTGTATGTAAAAAAGTGTACATGAGTGATTATATAA [XGTACX_site8166]”, “GTATATATCCCAAAATGTACATAATTTATTATTTAT [XGTACX_site2842]” is lower in “gcPBM binding intensity (ln)” value: 6.91 for the first, 6.5 for the second.

Going from “ATTTATTTTCTGTGTACACATATGTTGGGTATTTTA [CACACA_site5902]” to “AGAAAAAAAAAAAGTACACACATATAACATATAGAT [CACACA_site7410]”, the “gcPBM binding intensity (ln)” value falls from 7.78 to 6.45.

First: ATAGGTAAAAAGTATACACACGTTGACACATTCTTT [CACACA_site4794]
Second: ATTTTAAAAAGGATAGTGCAAATGTTAAAATAGGAC
The “gcPBM binding intensity (ln)” value of the first is lower: 6.46 for the first, 9.91 for the second.

First: AAATAATACAAGGGCTGTACATAAAAAGGAGTATAT [XGTACX_site839]
Second: GGAAAACACAAAAACTGTACATTTATTCAACATATA [XGTACX_site5831]
The “gcPBM binding intensity (ln)” value of the first is higher: 7.15 for the first, 6.53 for the second.

Compared with “TATATACATATATACACACACATATATATATATATA [CACACA_site2805]”, “TACAAAAAAATAAATAATAAAAAAAAATATATATAA [XGTACX_negctrl_site344]” is lower in “gcPBM binding intensity (ln)” value: 9.28 for the first, 6.32 for the second.

Compared with “CAGGTGCACTATATTACACACGCTTCTTTTTTTTTA [CACACA_site2069]”, “TTGATATTATTGTATAAACATAATAGAGATAAAGAG [TGCATGCA_negctrl_site455]” is lower in “gcPBM binding intensity (ln)” value: 11 for the first, 7.08 for the second.

First: AACATGTTAACTAAATGTACACACCTATGTTGATGT [XGTACX_site3777]
Second: TGAAGGATATATTCCGTGCACATATAAATATATACA
The “gcPBM binding intensity (ln)” value of the first is lower: 6.34 for the first, 9.45 for the second.

Compared with “AATAAATGGAATGTCACACATATATATATATATATA [CACACA_site4869]”, “ATTATTTAAAAAAAATGTACATAATAAATATGAACG [XGTACX_site4010]” is lower in “gcPBM binding intensity (ln)” value: 9.4 for the first, 6.2 for the second.

Going from “TAAATTAAAAAACACACACACAAAAAAAAAAAAAAA [CACACA_site2263]” to “AAAAAAAAGAAAGAAAGTACAAATTATAAAATGAAC [XGTACX_site860]”, the “gcPBM binding intensity (ln)” value rises from 6.02 to 6.62.

Compared with “AGTGTATGTATATAAACACACATACATATTTATAAC [CACACA_site6777]”, “ATTTCTAAATGTTGGTGTACGTTTTTTTATAACCTT [XGTACX_site1752]” is higher in “gcPBM binding intensity (ln)” value: 6.35 for the first, 6.78 for the second.

Compared with “TTATGTATTCATTTTTTTTAAGCACCCCAAAATGAT [CACACA_negctrl_site1344]”, “ATAATATATATATAAACACACAAAAAAAATTATATA [CACACA_site1534]” is lower in “gcPBM binding intensity (ln)” value: 6.78 for the first, 6.69 for the second.

Compared with “TATTTATTAAAACACACACACACACCCACAAAATAA [CACACA_site241]”, “ATTTTTTTTTATGATACACACTTGGATAATTAAAAC [CACACA_site4473]” is lower in “gcPBM binding intensity (ln)” value: 7.2 for the first, 6.49 for the second.

Going from “TTATTCATTTTTATTTGTACATAATTATATGAAATT [XGTACX_site6389]” to “TTTTATATTTTATGCACACTTATAAGAAATATGTAC [CACACA_site3040]”, the “gcPBM binding intensity (ln)” value rises from 6.53 to 10.6.

Going from “CAAAATGTTTCTCATTGTACACAAAATAAATGTCCT [XGTACX_site6798]” to “TAATGAATTTAAATTTTAAAATTAATAAAAAAAATA [TGCATGCA_negctrl_site15]”, the “gcPBM binding intensity (ln)” value rises from 6.33 to 6.38.

First: ATTAGTAAATTTATATGTACACATTGTTATTTTATA [XGTACX_site1177]
Second: ACATTTACAAGGAAAGTGCATATAAGAAAAATAAAA [GTGCAC_site9587]
The “gcPBM binding intensity (ln)” value of the first is lower: 6.66 for the first, 8.79 for the second.

Going from “ATACATATGTATATTTGTACATATTAGACAATCTTA [XGTACX_site6706]” to “CCACATGATATGATTACACACATATATATATTTACA [CACACA_site164]”, the “gcPBM binding intensity (ln)” value rises from 6.3 to 6.77.

First: ATTCTATTATAATACACACCCAAATATTAAAAAGAT [CACACA_site2960]
Second: GATGTTGCAAAATTCTGTACATATAAATGTATACAT [XGTACX_site5009]
The “gcPBM binding intensity (ln)” value of the first is lower: 7.79 for the first, 9.15 for the second.

First: TATTATATATATATATGTACATATATATGCTAAAAA [XGTACX_site5297]
Second: TGTGTAGGGGATATTCTACTTTAAAAATAAATATAT [CACACA_negctrl_site207]
The “gcPBM binding intensity (ln)” value of the first is lower: 6.67 for the first, 6.71 for the second.

Compared with “TATAAAAGATTGGAATGTACATAAGAAAAAAATATA [XGTACX_site5028]”, “GGCCCAACTTCTTCTGACGAAAACGTAAATTGTGTG [XGTACX_negctrl_site533]” is lower in “gcPBM binding intensity (ln)” value: 6.94 for the first, 6.58 for the second.

Going from AATCATATTAGTATGGTGCAACATATATAAATATAT to “TTCAAGATTTATTATACACACATATTAATATTTATA [CACACA_site6413]”, the “gcPBM binding intensity (ln)” value falls from 11 to 6.93.

Going from “GTAACATTTTAAATATATACATATAATGTATTTATA [GTGCAC_negctrl_site344]” to “TGTTGTATCAATTTTTGTACATAACACATATGTATA [XGTACX_site3666]”, the “gcPBM binding intensity (ln)” value falls from 6.25 to 6.18.

Going from “ATTAAACCGTGGGAGCACACACACACACACACACAT [TGCATGCA_negctrl_site72]” to “ATATATATATTATGGGGTACAAACATCAAAAGATTT [XGTACX_site3944]”, the “gcPBM binding intensity (ln)” value rises from 7.17 to 7.96.

Compared with “ATTAATTAAAAGGGAACACATAGAAATTATAAAACA [GTGCAC_negctrl_site420]”, “ACACAAGCACACAAATGTACATATATATATATATAT [XGTACX_site5146]” is higher in “gcPBM binding intensity (ln)” value: 7.01 for the first, 9.4 for the second.

Going from “GGAAAAAAAAATAAATGTACGAATTAACATATCAAA [XGTACX_site5653]” to “ACACATATATTAAATGTGCACTGAAATATGCATATA [GTGCAC_site9936]”, the “gcPBM binding intensity (ln)” value rises from 6.3 to 9.68.

Going from “ACTTGTAAGAGACACACACACACACGGATATAAATA [CACACA_site6517]” to “TTATTTTCCCTTTGTGCATGCAGTTTACTTTTTGTG [TGCATGCA_site993]”, the “gcPBM binding intensity (ln)” value rises from 6.79 to 8.61.

Going from “ATATATGTATATTTATGTACGTATTCCTGTATAGTC [XGTACX_site5763]” to “CAAAATAAAAATAACACACACATTTATTTATATACA [CACACA_site6679]”, the “gcPBM binding intensity (ln)” value rises from 6.51 to 6.62.

First: AATATTACAATTTGGTGTACAGGTGCACATGCCTCA [XGTACX_site1730]
Second: TAGCTTATAAGATATGCACACACAACACTTACAAAA [CACACA_site8174]
The “gcPBM binding intensity (ln)” value of the first is lower: 9.16 for the first, 9.5 for the second.

First: TCTACAATTTTAATTACACACTATAAAAAAGAAAGA [CACACA_site5624]
Second: ATAATGAAAACAAGCACACATACATAAAATAAAATA [CACACA_site3257]
The “gcPBM binding intensity (ln)” value of the first is lower: 6.65 for the first, 6.84 for the second.

Going from “ATAAATTTTTAAACAGCACACATAAATATAATATAT [CACACA_site8691]” to “TTTTGTTATTATAAATAGTAACATTTGTGAATATAT [TGCATGCA_negctrl_site132]”, the “gcPBM binding intensity (ln)” value falls from 6.85 to 6.42.

Going from “AAGACATTTTTTTGTTGTACGTCTTCATTTATTGTA [XGTACX_site2890]” to “TTTAAAATTATAAGGATTAAAAAAAAAAAAAATAAA [CACACA_negctrl_site114]”, the “gcPBM binding intensity (ln)” value falls from 6.58 to 6.19.

Going from “AACAAATAAAAAAAAATAAAAATAAAAATAAAAAAA [XGTACX_negctrl_site451]” to “AAGAATTATATTAATAGTACATATATATTAATTTAT [XGTACX_site5713]”, the “gcPBM binding intensity (ln)” value falls from 6.36 to 6.25.

Compared with “TTATTTATGAAGTATACACACAATATAGATTTATAT [CACACA_site6703]”, “CTGTAAAAAATATAAACACACATAGAGATATATAAA [CACACA_site6292]” is lower in “gcPBM binding intensity (ln)” value: 6.57 for the first, 6.53 for the second.

Going from “TTTAATGTTACTCCTTGTACACAAAATAGTGTTATA [XGTACX_site8416]” to “TAAGTATATTTTATATGTACTTATATATTTAATTTT [XGTACX_site4615]”, the “gcPBM binding intensity (ln)” value falls from 6.6 to 5.62.

First: TATTAATATGGTAATACACACTAATATACTTTTGTT [CACACA_site6860]
Second: ATATATATATATATATGTACGTATTCATAAACAACA [XGTACX_site4282]
The “gcPBM binding intensity (ln)” value of the first is lower: 6.59 for the first, 9.27 for the second.

First: TTAATATATTATCTGGTGCATAAACACGTTATACCT
Second: CAGTATTACATGAGGACACACACAAAAAAAATATAT [CACACA_site8156]
The “gcPBM binding intensity (ln)” value of the first is higher: 10.6 for the first, 6.87 for the second.

Going from “ATGATTTCACAAGACACACACATACAAATTTATATA [CACACA_site3909]” to “TATTTTATATTTTATGCACACTTATAAGAAATATGT [CACACA_site5647]”, the “gcPBM binding intensity (ln)” value rises from 6.73 to 9.42.

Going from “CAAGCTTTTTCCTTTACACACATTAGTTATTTATAT [CACACA_site6781]” to “ATAGGTTCCCAAAATGCACACCAATGAAATTATTTA [CACACA_site8081]”, the “gcPBM binding intensity (ln)” value rises from 6.83 to 9.34.

Going from “ATATTATTTTAAAGTACACACATATATTAAGATATA [CACACA_site5306]” to “CATACAGATATATATACACACATACAGATAAATACA [CACACA_site4592]”, the “gcPBM binding intensity (ln)” value rises from 6.6 to 6.87.

First: GGTAATTTTTTTTAAATACACACTGAAATGTGAATT [CACACA_site564]
Second: AACATACATAAACACACACACACACCCACAGAGACA [CACACA_site4430]
The “gcPBM binding intensity (ln)” value of the first is lower: 6.61 for the first, 6.97 for the second.

Compared with “CTTATAAAAAAAAAAACATGCAACAGTAAAGAACAA [TGCATGCA_site892]”, “AAAAAAATAAGTATTGAACAATTAAGGAAAAACATG [GTGCAC_negctrl_site464]” is lower in “gcPBM binding intensity (ln)” value: 7.33 for the first, 6.7 for the second.

Going from “TTTTTTCAATTTTTTTTAAATAAACCACAAAAAAAA [CACACA_negctrl_site1701]” to “AAACTATAATATATTACACACATATATTTTATAAGT [CACACA_site6460]”, the “gcPBM binding intensity (ln)” value rises from 5.89 to 6.47.

First: AAATAAAAAAAGAAACGTACATATATTGGTTTCGTC [XGTACX_site3510]
Second: TAATGTAAAATTTAGAGTACATAAAAAATTGGATGA [XGTACX_site7225]
The “gcPBM binding intensity (ln)” value of the first is lower: 6.24 for the first, 6.68 for the second.

Going from “AATTGAATTTTAAAAGAAAAAAAAAAAAAAAAATAA [XGTACX_negctrl_site195]” to “GGAATAGTAATATATACACACAAATACAGATATATA [CACACA_site4213]”, the “gcPBM binding intensity (ln)” value rises from 5.92 to 6.73.

Going from “TGGAGGTCAGTTCACAGTACCCAGAAACTCTACGGA [XGTACX_site4927]” to “AATAATTGAAAAACACAAAAATGATTTTCCATAAAT [CACACA_negctrl_site1555]”, the “gcPBM binding intensity (ln)” value falls from 5.97 to 5.77.
